Some of the results follow.
T1: UNK ZnF1-6 (called full-length) (human, UniProt Q9C0B0 30-357)
T1 sequence: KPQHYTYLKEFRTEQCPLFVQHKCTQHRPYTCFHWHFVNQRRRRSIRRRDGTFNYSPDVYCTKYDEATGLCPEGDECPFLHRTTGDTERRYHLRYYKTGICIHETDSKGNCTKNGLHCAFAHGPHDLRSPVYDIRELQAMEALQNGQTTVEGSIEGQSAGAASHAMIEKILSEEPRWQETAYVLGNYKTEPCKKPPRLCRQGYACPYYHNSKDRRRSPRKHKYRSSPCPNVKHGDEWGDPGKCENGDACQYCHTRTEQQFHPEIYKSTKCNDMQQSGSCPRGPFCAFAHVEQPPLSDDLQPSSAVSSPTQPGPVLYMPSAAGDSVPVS

B1: ENSG00000198589:be:win_3551|CDS|ENSG00000198589|bound_else_gene|NA|bound_elsewhere_windowed (ssRNA)
RNA: GGGAGUUCUACAGUCCGACGAUCCAUCAGGGUCUUCAGCUAUGUCACCAGAAACUACUGUUUCCCAAAUAGCUGUAGAAUCAGACCUUGGUCAGAUGCUGGAGGAAGGGAAGAAAGCAACUAACCUCACUAGAGAAACCAAAUCAACAGAGGAUUGAGCAUCA
B2: chr17:59694590:59694691:+|3pUTR|ENSG00000141367|msi1|total|mutant (ssRNA)
RNA: GGGAGUUCUACAGUCCGACGAUCCUUGUGUGUGUUUACUAACCCUUCCCUGAGGUUUGUGUAUGUUGGAUAUUGUGGUGUUUCCGAUCACUGAGUGUACAGAAGAGAGAAAUUCAAACAAAAUAUUGCUGUUCUUCAGUUUUGCAACAGAGGAUUGAGCAUCA
B3: chr5:133076644:133076819:+|CDS|ENSG00000170606|unk|FALSE|unique (ssRNA)
RNA: GGGAGUUCUACAGUCCGACGAUCAAAAUUUGAUGAAGUGUUAGUAAAUCACUUCUGUGAAGAAUUUGGGAAGAAAUACAAGCUAGACAUUAAGUCCAAAAUCCGUGCAUUAUUACGACUCUCUCAGGAGUGUGAGAAACUCAACAACAGAGGAUUGAGCAUCA
B4: chr10:73479331:73479449:-|CDS|ENSG00000107758|unk|total|mutant (ssRNA)
RNA: GGGAGUUCUACAGUCCGACGAUCGUUGAUGUUCUGAAGAACCACUUGGUGAAAGAAGGUCGAGCCGAUGAAGAAAUUGCGCUCCGAAUUAUCAAUGAGGGUGCUGCCAUCCUUCGGAGAGAGAAAACCAUGACCGAAGCCGAACAACAGAGGAUUGAGCAUCA
B5: chr4:99204923:99205063:-|CDS|ENSG00000172955|control|control|control (ssRNA)
RNA: GGGAGUUCUACAGUCCGACGAUCGAAGAGCAGACAGCACAUCCCUAAACUGGUUGCUGAUUAUAUGGCAGAGAAGUUGAAUCUAGAUCCACUAAUUACUCAUACUCUGAAUCUUGAUAAAAUCAAUGAAGCAGUUGAAUUAAUCAACAGAGGAUUGAGCAUCA
B6: chr10:110602053:110602155:+|CDS|ENSG00000108055|unk|total|mutant (ssRNA)
RNA: GGGAGUUCUACAGUCCGACGAUCCAGUUUGUAAAUUUCUCCGAGCAGAAAGAAAAGUUAAUAAAGCGUCAAGAAGAGUCCGACCGGGGUUACAAAUCAAUCAUGGAACUGAUGAAUGUACUUGAACUUCGGAAAUAUGAAGCUCAACAGAGGAUUGAGCAUCA

target: T1, UNK ZnF1-6 (called full-length); experiment: nsRBNS (natural sequence RNA bind-n-seq); RBNS binding buffer (assumed for nsRBNS): 25 mM Tris pH 7.5, 150 mM KCl, 3 mM MgCl2, 0.01% Triton X-100, 500 ug/ml BSA, 20 U/ml SUPERase-In, 4 C; UNK is unkempt and MSI1 is Musashi-1; names of the RNAs are library labels; protein concentration not given here; high values mean tight binding

Binder	binding signal
B1	0.656 enrichment R
B2	0.43 enrichment R
B3	0.433 enrichment R
B4	0.662 enrichment R
B5	0.416 enrichment R
B6	0.275 enrichment R

— article PMC12136788
